# Measurements taken from PubChem BioAssay AID2546 (National Center for Advancing Translational Sciences (NCATS), 2010).
# The whole screen tested about 310,000 compounds, of which about 11,000 (3.5%) were called active. Inconclusive means that the source gave no clear call. Such entries were picked first, then a sample of the others. The call rests on the fitted dose curve; in most records, active means well fitted inhibition curve with a large enough effect; inconclusive means small, poorly fitted or top-dose-only effect, or effect the other way; inactive means flat fitted curve, though single readings scatter. Potencies of inconclusive entries are left out as doubtful fits.
# Assay: VP16 counterscreen qHTS for inhibitors of ROR gamma transcriptional activity;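 further: Gal4-VP16 expression switched on by copper sulfate through the metallothionein promoter; nearly all actives have a fitted effect of over 50% in size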
# Details: Drosophila S2 Gal4-VP16 UAS-luciferase, luminescence, 20 h; series mostly up to 53.6 µM
# Potency means the concentration at half of the fitted maximal effect; tags describe the fitted curve by direction and shape.
row,Structure (SMILES),Potency
1,COCCn1c(=S)[nH]c2cc(OC)c(OC)cc2c1=O,"inconclusive [inhibitor, single point]"
2,CNc1nc(-c2cccnc2)nc2ccccc12,"inconclusive [activator, single point]"
3,Cc1ccc(Nc2nc(CSc3nnc(-c4ccccc4C)n3C)cs2)cc1,"inconclusive [inhibitor, single point]"
4,Cc1ccc(S(=O)(=O)N2CCN(c3ccnc4cc(Cl)ccc34)CC2)cc1,active: 15.8 µM
5,CCOC(=O)/C(=C\Nc1ccccc1C(F)(F)F)Sc1ncc(C(F)(F)F)cc1Cl,inactive
6,Cc1ccc(/C=N/Nc2ccc(C(=O)O)cc2)o1,active: 0.398 µM
7,O=C(CNc1ccc2ccccc2c1)N/N=C/C=C/c1cccc([N+](=O)[O-])c1,"inconclusive [inhibitor, single point]"
8,O=C(OCC(=O)N1CCCc2ccccc21)c1cnc(Cl)c(Cl)c1,"inconclusive [activator, single point]"
9,CCOC(=O)c1c(C)c(C(=O)N2CCN(C(=O)c3ccco3)CC2)c(C)n1C,inactive
10,Cn1c(CSc2ccccc2)c(C#N)c2ccccc21,inactive
11,CCOC(=O)c1c(-c2ccc(C)o2)csc1NC(=O)CSc1nnnn1-c1ccccc1,active: 7.94 µM
12,CC12CC(c3ccccc3O1)C(/C(N)=N/NC(=O)c1ccc(F)cc1)C(=O)N2 (centres undefined),"inconclusive [inhibitor, single point]"
13,CC(=O)N(C)c1ccc(NC(=S)NC(=O)/C=C/c2ccco2)cc1,inactive
14,Cc1[nH]c2ccccc2c1SCc1nnc(SCc2ccccc2)n1C,inactive
15,CCOP(=O)(C1=C(O)C(=O)C(C(C)(C)C)=CC1=O)c1ccccc1 (centres undefined),inactive
16,O=C(NC(C(=O)c1ccccc1)n1c(=O)cc[nH]c1=S)c1ccccc1 (centres undefined),"inconclusive [activator, full curve, poor fit]"
17,CC(C)(CCO)NC(=S)NC1CC2C=CC1C2 (centres undefined),"inconclusive [inhibitor, single point]"
18,O=C(Nc1ccc(-c2csc(-c3ccccc3)n2)cc1)c1ccccc1,"inconclusive [inhibitor, single point]"
19,COc1ccc(C(C[N+](=O)[O-])c2c(-c3ccccc3)cc3ccccn23)c(OC)c1 (centres undefined),"inconclusive [inhibitor, single point]"
20,O=C(OCCN1C(=O)c2cccc3c(N4CCOCC4)ccc(c23)C1=O)c1ccccc1Cl,"inconclusive [inhibitor, single point]"
21,CCOc1cc(C(=O)N2CCN(c3ccccn3)CC2)cc(OCC)c1OCC,"inconclusive [inhibitor, single point]"
22,Cc1c(Cl)cccc1NC(=S)Nc1ccccn1,"inconclusive [inhibitor, single point]"
23,Cn1cc(CN2CCCC(C(=O)Nc3cccc(-n4cccn4)c3)C2)cn1 (centres undefined),inactive
24,CCC[C@@H](CN[C@@H](CNC)C(C)C)NCCCCc1ccccc1,inactive
25,O=C(NC(=S)NCC1CCCO1)c1cccs1 (centres undefined),"inconclusive [inhibitor, single point]"

row,Structure (SMILES),Potency
1,C/C(=N\Nc1nc(C)c(C)s1)c1ccc([N+](=O)[O-])cc1,"inconclusive [inhibitor, single point]"
2,CC1=C(C(=O)OC(C)C)C(c2cccnc2)C2=C(CCCC2=O)N1 (centres undefined),"inconclusive [inhibitor, single point]"
3,O=C(COc1ccccc1Cl)Nc1cc(NC(=O)COc2ccccc2Cl)cc(C(=O)O)c1,"inconclusive [inhibitor, partial curve, poor fit]"
4,COCCNC(=O)NC(=O)CN1CCCc2ccccc21,inactive
5,Cc1ccn2c(C=O)c(-c3ccc(F)cc3)c(C=O)c2c1,"inconclusive [activator, partial curve]"
6,CCc1ccc(S(=O)(=O)NCc2cccs2)cc1,inactive
7,Cc1ccnc(NC(=O)Nc2cccc(F)c2)c1,"inconclusive [inhibitor, single point]"
8,FC(F)(F)c1nc2ccccc2nc1N/N=C/c1ccc(Cl)cc1,active: 10 µM
9,COc1ccc(NC2C[C@H]3CCCC(=O)N4CC[C@@H](C2)[C@@H]34)cc1 (some centres undefined),inactive
10,Cc1ccc(OC(=O)COc2ccccc2C)c(-n2nc3ccccc3n2)c1,"inconclusive [activator, single point]"
11,Nc1ccc(C(=O)Nc2ccccc2C(=O)O)cc1,"inconclusive [inhibitor, single point]"
12,CCc1noc(C)c1C(=O)NNC(=O)COc1ccc(Br)cc1,inactive
13,Cc1cc2cc(CNC(=S)NC3CCCCC3)ccc2n1C,"inconclusive [inhibitor, single point]"
14,COc1ccc(C(C)(C)C)cc1S(=O)(=O)n1ccnc1C,inactive
15,CCCC(=O)Nc1cccc(NC(=S)NC(=O)C(C)Oc2ccc(Cl)cc2Cl)c1 (centres undefined),active: 2.82 µM
16,N#Cc1ccc(-c2ccccc2)nc1SCC(=O)c1cccc(Cl)c1,"inconclusive [inhibitor, single point]"
17,Cc1nnc(N/N=C/c2ccccc2O)n1N,"inconclusive [activator, single point]"
18,Cc1cc(C)n2nc(C(=O)Nc3ccc4c(c3)OCO4)cc2n1,"inconclusive [inhibitor, partial curve]"
19,COc1ccccc1C(=O)NNC(=O)c1ccccc1,"inconclusive [inhibitor, single point]"
20,Cc1cccc(NC(=O)COc2ccc(Br)cc2/C=N/O)c1,active: 5.01 µM
21,O=C(NCCc1ccc(O)cc1)c1ccc(Cl)cc1,"inconclusive [inhibitor, single point]"
22,O=C1c2cccc3c([N+](=O)[O-])ccc(c23)C(=O)N1O,active: 12.6 µM
23,CCc1ccc(C(=O)COC(=O)[C@@H](NC(N)=O)[C@@H](C)CC)cc1,"inconclusive [inhibitor, single point]"
24,O=C(CO/N=C/c1ccccc1O)NNC(=O)c1ccccc1Cl,active: 14.1 µM
25,O=S(=O)(NCCSc1ccc(Cl)cc1)c1ccc(F)cc1,"inconclusive [inhibitor, single point]"

row,Structure (SMILES),Potency
1,COc1cc(OC)cc(C(=O)NC(=S)Nc2ccc3c4c(cccc24)CC3)c1,active: 5.62 µM
2,c1ccc(NC(c2ccccc2)c2ccncc2)cc1 (centres undefined),inactive
3,CN1CCc2c(sc(NC(=O)c3ccc(S(=O)(=O)N4CCCCCC4)cc3)c2C(N)=O)C1,"inconclusive [inhibitor, single point]"
4,Cn1sc(=O)c2cc(S(=O)(=O)NC3CC3)ccc21,"inconclusive [inhibitor, single point]"
5,Cc1ccc(C(=O)N/C(=C\c2ccccc2)C(=O)OCc2ccccc2)cc1,inactive
6,O=C(N/N=C\c1ccc(Sc2ccccn2)o1)c1cccc(Br)c1,"inconclusive [inhibitor, single point]"
7,O=S1(=O)CCOC[C@H](CC2CCCCC2)N1Cc1ccc(F)cc1,"inconclusive [inhibitor, single point]"
8,CC(C)c1ccc(C2NC(=S)NC3=C2C(=O)CC(C)(C)C3)cc1 (centres undefined),"inconclusive [inhibitor, single point]"
9,Clc1ccc2[nH]c3c(NCC4CCCO4)ncnc3c2c1 (centres undefined),"inconclusive [inhibitor, single point]"
10,Nc1ccc2c(c1)C/C(=C/c1ccco1)C2=O,"inconclusive [activator, partial curve]"
11,CCOC(=O)/C(C(=O)Nc1ccccc1Br)=C1/NC(C)(C)Cc2ccccc21,inactive
12,CCOc1ccc(-n2c(N)c(C(=O)NCc3ccco3)sc2=S)cc1,inactive
13,CCN(CC)c1ccc(/C=N/N=C(c2ccccc2)c2ccccc2)c(O)c1,active: 20 µM
14,O=C(NCc1ccccc1)c1ccc(S(=O)(=O)Nc2cccc(C(F)(F)F)c2)cc1,"inconclusive [inhibitor, single point]"
15,CCOc1ccc2nc(NC(=O)c3cnc(C)cn3)sc2c1,active: 5.62 µM
16,c1ccc(-c2n[nH]c(-c3ccccn3)n2)nc1,"inconclusive [inhibitor, single point]"
17,CC(=O)c1cc(NC(=O)c2cccc(C(F)(F)F)c2)c(=O)oc1C,active: 7.08 µM
18,Cc1nc2scc(C)n2c(=O)c1S(=O)(=O)Nc1ccc(OC(F)(F)F)cc1,"inconclusive [inhibitor, single point]"
19,Cc1cccc(-c2noc(CCCC(=O)NC3CCCC3)n2)c1,"inconclusive [inhibitor, single point]"
20,CC(=O)N1CCC2(CCCN(C(c3ccccc3)c3ccccc3)C2)CC1,inactive
21,Cc1ccc(OCc2nc(-c3ccccn3)no2)c(Br)c1,"inconclusive [inhibitor, partial curve]"
22,O=C(NCCNCCO)C1(C(F)(F)F)CC(CCc2ccccc2)CCCO1 (centres undefined),"inconclusive [inhibitor, single point]"
23,N#C/C(=C/c1cn(-c2ccccc2)nc1-c1cccc(OCc2ccccc2)c1)C(=O)NCCCn1ccnc1,"inconclusive [inhibitor, single point]"
24,O=C(NCCc1ccccc1)C1=CCN(S(=O)(=O)c2ccccc2)CC1,"inconclusive [inhibitor, single point]"
